Data published in PubChem BioAssay AID485294 (National Center for Advancing Translational Sciences (NCATS), 2010).
Among all 370,000 compounds or so, about 150 (0.041%) were called active. Inconclusive results, whose numbers are uncertain, are shown with a selection of clear calls. Calls follow the shape of the dose curve; as a rule, active = well fitted inhibition curve with a large enough effect; inconclusive = small, poorly fitted or top-dose-only effect; inactive = flat fitted curve, though single readings scatter. Potencies of inconclusive entries are left out as doubtful fits.
Also: nearly all actives have a fitted effect of over 25% in size.
Potency is read from the fitted curve at half-maximal effect; tags tell the direction and shape of the fitted curve.

What follows are molecules tested against Beta-lactamase (Escherichia coli (strain K12)) (UniProt P00811) (assay: qHTS Inhibitors of AmpC Beta-Lactamase (assay with detergent)). Details: AmpC hydrolysis of nitrocefin, absorbance 480 nm, 0.01% Triton; series mostly up to 114 µM.
Sequence of UniProt P00811 (P00811 whole entry, looked up): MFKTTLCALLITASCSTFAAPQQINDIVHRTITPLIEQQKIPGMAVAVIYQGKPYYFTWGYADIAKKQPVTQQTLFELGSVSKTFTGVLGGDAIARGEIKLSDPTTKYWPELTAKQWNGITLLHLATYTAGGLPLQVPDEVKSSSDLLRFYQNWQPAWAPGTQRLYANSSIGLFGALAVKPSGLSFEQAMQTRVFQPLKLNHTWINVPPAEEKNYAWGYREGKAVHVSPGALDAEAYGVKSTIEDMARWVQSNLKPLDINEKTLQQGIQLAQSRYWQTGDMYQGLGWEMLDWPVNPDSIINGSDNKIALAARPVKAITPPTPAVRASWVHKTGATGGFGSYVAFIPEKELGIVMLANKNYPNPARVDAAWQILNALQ
How it was run: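 AmpC (5.3 nM in the dispensed reagent) in 20 mM phosphate pH 7.0 with 0.01% (detergent screen) or 0.0001% Triton X-100 was preincubated with compounds for 15 min at room temperature. Nitrocefin was then added from an 800 uM solution, and hydrolysis was followed at 480 nm.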
With `CC(=O)Nc1nnc(SCc2cc(=O)c3cc(C)ccc3[nH]2)s1` the Potency was “inactive”. `COC(=O)C1=C(c2cccc(C#N)c2)C[C@@H]2CC[C@H]1N2C(=O)NCCO` was tested, and the Potency was “inactive”. With `Oc1c(C(c2ccccc2)N2CCN(Cc3ccccc3)CC2)sc2nc(-c3ccco3)nn12` (centres undefined) the Potency was “inactive”. `Cc1ccc(S(=O)(=O)N(C)CC(=O)N2CCN(Cc3ccc4c(c3)OCO4)CC2)cc1` was tested, and the Potency was “inactive”. With `O=C(CSc1nnc2ccccn12)c1ccc(OC(F)F)cc1OC(F)F` the Potency was inconclusive [inhibitor, full curve]. `COc1ccc(-c2ccc(NS(=O)(=O)c3cc([N+](=O)[O-])ccc3C)cc2)nn1` was tested, and the Potency was inconclusive [inhibitor, full curve, poor fit]. With `CCn1nc(C(=O)N[C@@H](CCSC)c2nc3ccccc3[nH]2)c2ccccc2c1=O` the Potency was “inactive”. `C/C(=N\NC(=O)c1cc2ccccc2cc1O)c1cccs1` was tested, and the Potency was “inactive”. In the case of `Cc1ccc(-c2cc(C(=O)N3CC(C)CC(C)C3)c3ccccc3n2)o1` (centres undefined), the Potency is reported as “inactive”. With `CC(=O)Nc1ccc(/C=C/c2nc3ccccc3o2)cc1` the Potency was “inactive”. For `Cc1ccc(SCC(=O)Nc2cc(C)on2)cc1`, the Potency was inconclusive [inhibitor, full curve, poor fit]. With `CCOC(=O)N/N=C(\C)c1ccc(-n2cnnn2)cc1` the Potency was inconclusive [inhibitor, partial curve, poor fit]. In the case of `COc1ccc(C)cc1NC(=O)c1ccccc1NS(=O)(=O)c1cccc2cccnc12`, the Potency is reported as inconclusive [inhibitor, single point]. With `CCCCCc1cc(=O)oc2c(C(CCN3CCCC(C)C3)c3ccc(OC)cc3)c(OC)cc(OC)c12` (centres undefined) the Potency was “inactive”. In the case of `CC(NS(=O)(=O)c1ccc(OCC(=O)Nc2cccc([N+](=O)[O-])c2)cc1)c1ccccc1` (centres undefined), the Potency is reported as inconclusive [inhibitor, single point]. With `NC(=O)CSc1nnc2n(-c3ccccc3)c(=O)c3c4c(sc3n12)CCCCC4` the Potency was inconclusive [inhibitor, single point]. In the case of `CNC(=O)CSc1nnc(-c2ccccn2)n1Cc1ccco1`, the Potency is reported as “inactive”. `O=C(Nc1nonc1-c1ccc(F)cc1)c1ccco1` was tested, and the Potency was inconclusive [inhibitor, full curve, poor fit]. In the case of `COc1ccccc1CCC(=O)Nc1ccc(S(=O)(=O)Nc2cc(C)nc(C)n2)cc1`, the Potency is reported as inconclusive [inhibitor, full curve, poor fit]. For `Cc1ccc(S(=O)(=O)NCCC(=O)N2CCN(S(=O)(=O)c3ccccc3)CC2)cc1C`, the Potency was inconclusive [inhibitor, partial curve, poor fit]. `CC(=O)c1ccc(NC(=O)c2ccc(CSc3ccccc3)o2)cc1` was tested, and the Potency was inconclusive [inhibitor, full curve]. In the case of `COc1ccccc1N1CCN(C/C(C)=C/c2ccccc2)CC1`, the Potency is reported as inconclusive [inhibitor, full curve]. In the case of `COc1ccc(NC(=O)CCCNC(=O)Cn2cnc3sc4c(c3c2=O)CCCC4)cc1OC`, the Potency is reported as inconclusive [inhibitor, single point]. `S=c1[nH]c2cc(Cl)ccc2s1` was tested, and the Potency was inconclusive [inhibitor, full curve]. With `O=C(N/N=C/c1cn(Cc2ccccc2)c2ccccc12)c1cc(O)cc(O)c1` the Potency was “inactive”. In the case of `CSc1ncc(Cl)c(C(=O)Nc2ccccc2Cl)n1`, the Potency is reported as inconclusive [inhibitor, full curve, poor fit]. With `O=C(CN1CCCC1)Nc1sc2c(c1C(=O)Nc1ccc(Br)cc1)CCC2` the Potency was inconclusive [inhibitor, full curve, poor fit]. For `O=C(C[n+]1ccccc1)N/N=C/c1ccc(Cl)cc1`, the Potency was inconclusive [inhibitor, full curve, poor fit]. With `Cc1ccc(S(=O)(=O)NCC(=O)N(CC(=O)NCc2ccc(F)cc2)CC2CCCO2)cc1` (centres undefined) the Potency was inconclusive [inhibitor, partial curve, poor fit]. In the case of `CCCCC(=O)Nc1cccc(-c2nc3ncccc3o2)c1`, the Potency is reported as inconclusive [inhibitor, full curve]. With `COc1ccc(S(=O)(=O)N(Cc2nc(-c3ccc(C)cc3)no2)C2CCCCC2)cc1` the Potency was “inactive”. For `COc1ccccc1C(CNC(=O)C(C)Oc1ccc(Br)cc1)N1CCCC1` (centres undefined), the Potency was inconclusive [inhibitor, single point]. In the case of `COc1ccc(-c2noc(C3CCCN(C(=O)CCc4ccccc4)C3)n2)cc1` (centres undefined), the Potency is reported as “inactive”. In the case of `CCCCN(CC)C(=O)c1ccc(Cl)c(Cl)c1`, the Potency is reported as “inactive”. `Cn1c(=O)c2cc(S(=O)(=O)N3CCN(c4cccc(C(F)(F)F)c4)CC3)ccc2n(C)c1=O` was tested, and the Potency was inconclusive [inhibitor, full curve, poor fit]. With `Cn1c(=S)[nH]c2c(c1=O)C(C)(C)Cc1ccccc1-2` the Potency was “inactive”. In the case of `Cc1ccc(CNC(=O)CCCn2nc(C)n3ccnc3c2=O)cc1`, the Potency is reported as inconclusive [inhibitor, full curve, poor fit]. `CC(NC(=S)Nc1c(Br)cccc1OC(F)F)C(C)(C)C` (centres undefined) was tested, and the Potency was inconclusive [inhibitor, full curve]. For `CC1(C)CC(CC(=O)NNc2nc(-c3ccccc3)cs2)C(=O)O1` (centres undefined), the Potency was inconclusive [inhibitor, partial curve, poor fit]. For `CC(C)Cn1c(N)c(C(=O)CSc2nnc(-c3ccco3)n2C)c(=O)n(C)c1=O`, the Potency was inconclusive [inhibitor, single point]. With `COc1cccc(OC)c1-c1nn2c(-c3cc(-c4ccccc4)n[nH]3)nnc2s1` the Potency was inconclusive [inhibitor, partial curve, poor fit]. For `Cc1ccc(N/C=C/C(=O)c2ccccc2)cc1Br`, the Potency was inconclusive [inhibitor, full curve, poor fit]. With `Cc1oc2cc3oc(=O)c(CCC(=O)NCCN4CCOCC4)c(C)c3cc2c1C` the Potency was “inactive”. For `CCC(=O)N1CCNC(=O)C1CC(=O)Nc1ccc(C)c(Cl)c1` (centres undefined), the Potency was inconclusive [inhibitor, full curve, poor fit]. For `CC(=O)N(CCC(Cc1ccccc1)c1ccc2c(c1)OCO2)Cc1ccc(Cl)cc1` (centres undefined), the Potency was “inactive”. In the case of `O=C(Cn1c(=O)n(Cc2ccco2)c(=O)c2c3c(sc21)CCCCC3)Nc1ccccc1`, the Potency is reported as “inactive”. In the case of `Cn1c(=O)c2c(nc(NC3CCCCC3)n2CC(O)COc2ccccc2)n(C)c1=O` (centres undefined), the Potency is reported as “inactive”. `COP(=S)(OC)SCN1C(=O)c2ccccc2C1=O` was tested, and the Potency was inconclusive [inhibitor, partial curve, poor fit]. `O=C(/C=C/Nc1ccc(F)cc1F)c1cccs1` was tested, and the Potency was “inactive”. `CC1(C)CC(=O)C2=C(C1)OC(N)=C(C#N)C2c1ccccc1` (centres undefined) was tested, and the Potency was inconclusive [inhibitor, full curve, poor fit]. With `CC1CN(Cc2ccccc2)c2ccccc2NC1=S` (centres undefined) the Potency was inconclusive [inhibitor, single point]. With `CC(=O)N1CCN(c2ccc(Oc3ncnc4sccc34)cc2)CC1` the Potency was inconclusive [inhibitor, partial curve, poor fit]. `O=C(Nc1ccncc1)c1cc2ccccc2cc1O` was tested, and the Potency was inconclusive [inhibitor, full curve, poor fit]. `COc1cccc(NC(=O)COC(=O)c2c3c(nc4ccccc24)CCC(C)C3)c1` (centres undefined) was tested, and the Potency was “inactive”. `CCc1cc(=O)oc2cc(C)cc(OCC(=O)NC(Cc3c[nH]c4ccc(O)cc34)C(=O)O)c12` (centres undefined) was tested, and the Potency was “inactive”. In the case of `CCOc1cc(C(N)=O)cc(Br)c1OCC`, the Potency is reported as inconclusive [inhibitor, full curve, poor fit]. With `O=c1c(O)c(-c2cccs2)oc2ccc(Cl)cc12` the Potency was inconclusive [inhibitor, full curve, poor fit]. With `Cc1cccc(Nc2nc(-c3ccccc3)c(C(=O)Nc3cccnc3)s2)c1` the Potency was inconclusive [inhibitor, full curve]. With `Cc1ccccc1CC(=O)NC1CCCCCC1` the Potency was inconclusive [inhibitor, full curve]. In the case of `CCOc1ccc(/C=N/NC(=S)NC2CC3C=CC2C3)cc1` (centres undefined), the Potency is reported as “inactive”. For `NS(=O)(=O)c1cc(C(=O)OCC(=O)Nc2ccc3[nH]c(=O)[nH]c3c2)ccc1Cl`, the Potency was “inactive”. With `CC(C(=O)O)n1cnc2sc3c(c2c1=O)CCCC3` (centres undefined) the Potency was inconclusive [inhibitor, partial curve]. For `CC1=C/C(=C\c2ccc3c(c2)OCO3)C(=O)S1`, the Potency was inconclusive [inhibitor, full curve]. With `COc1ccccc1C(=O)N1CCN(Cc2ccc3c(c2)OCO3)CC1` the Potency was inconclusive [inhibitor, full curve, poor fit]. `C#CCOCCOCCOCCNc1nc(N2CCOCC2)nc(N2CCN(C(=O)CCCCCCCCCCNC(=O)Cn3cc(CCCCCN)nn3)CC2)n1` was tested, and the Potency was inconclusive [inhibitor, full curve, poor fit]. In the case of `CCOC(=O)C1(Cc2cccc(OC)c2)CCN(Cc2ccccc2)CC1`, the Potency is reported as “inactive”. In the case of `CC(=O)N1CCN(C(=O)c2cc(-c3ccc(Cl)s3)nc3ccccc23)CC1`, the Potency is reported as inconclusive [inhibitor, full curve, poor fit]. `CCC1(CC)NC(=O)N(CC(=O)OCC(=O)Nc2cc(C)ccc2C)C1=O` was tested, and the Potency was inconclusive [inhibitor, partial curve, poor fit]. For `CCCN(C(=O)Cn1ncc2c(=O)oc3ccccc3c21)c1cccc(C)c1`, the Potency was “inactive”.
